The results in this text go back to PubChem BioAssay AID463173 (ICCB-Longwood Screening Facility, Harvard Medical School, 2010).

The whole screen tested about 52,000 compounds, of which about 1,700 (3.3%) were called active. Rule as the data show it: active = survival mostly below about 52% (no sharp cut-off); inactive = mostly above about 56%. The list shows a part of the results.

This test concerns Wild type. Nature of the test: growth inhibition of S. aureus wild type versus tarO mutant, primary screen, teichoic acid synthesis inhibitors, RN4220, OD600 (AID 463173). The following applies: S. aureus RN4220 wild type/DeltatarO growth, OD600, 18 h, active compounds read low, screened at 18.75 µg/mL (by protocol).
For `O=C(O)CCSc1nnc(-c2ccc(Cl)cc2Cl)o1`, the survival was inactive: 65%.
In the case of `Nc1ccc(S(=O)(=O)N2CCSC2C(=O)O)cc1` (stereo not given), the survival is inactive: 101%.
On to `Cc1cccc(-c2cc(C(=O)O)c3c(-c4ccc(F)cc4)[nH]nc3n2)c1`, for which the survival is inactive: 81%.
For `Cc1ccc2nc(N(Cc3cccnc3)C(=O)CCc3ccccc3)sc2c1`, the survival is inactive: 67%.
For `CC1(C(=O)O)COC(c2ccc(Cl)cc2)OC1` (stereo not given), the survival was inactive: 107%.
As for `CC(C)C1NC(=O)c2c(sc3c2CCCC3)N1` (stereo not given), the survival was inactive: 92%.
Turning to `COc1ccc(-c2nc3n(n2)C(c2cccc(C)c2)C(C(N)=O)=C(C)N3)cc1OC` (stereo not given), the survival is inactive: 73%.
With `CC(=O)c1ccc(NC(=O)c2nn(C)c3c2CS(=O)(=O)c2ccccc2-3)cc1`, the survival was inactive: 97%.
Regarding `CCOC(=O)C1=C(CN2CCCCC2)NC(=O)NC1c1ccc(OC)cc1` (stereo not given), the survival was inactive: 72%.
As for `CC1(C)Cc2ccccc2C(N/N=C/c2ccco2)=N1`, the survival was inactive: 113%.
Regarding `Cc1cccc(NC(=O)c2ccc(F)c(S(=O)(=O)N3CCN(c4ccc(F)cc4)CC3)c2)c1`, the survival was active: -3%.
As for `O=C1c2ccccc2C(=O)N1CN(Cc1ccccc1)CN1C(=O)c2ccccc2C1=O`, the survival is inactive: 101%.
Take `Cc1ccc(-c2cn3c(n2)sc2cc(C(=O)NC4CCCCC4)ccc23)cc1`: the survival was inactive: 96%.
As for `COc1ccc(CCNC(=O)CCn2c(=O)c3cccn3c3ccc(F)cc32)cc1OC`, the survival is inactive: 64%.
The figure for `CCOc1ccccc1NC(=O)c1cn(C2CCCCC2)c(=O)c2c1c1ccccc1n2C` is inactive: 94%.
Regarding `NS(=O)(=O)c1ccc(CCNC(=O)CCn2c(=O)c3cccn3c3cccnc32)cc1`, the survival was inactive: 92%.
As to `COc1ccccc1N1CCN(CC(N)=O)CC1`, the survival is inactive: 100%.
In the case of `Cc1ccc(-n2ncc(C(=O)N(C)Cc3ccccc3)c2-n2cccc2)cc1`, the survival is inactive: 73%.
For the molecule `Cc1cc(F)ccc1NC(=O)CN1C(=O)CCc2cc(S(=O)(=O)N3CCOCC3)ccc21`, the survival is inactive: 88%.
In the case of `CC(CNC(=O)c1cc2ccccn2n1)c1ccccc1` (stereo not given), the survival is inactive: 80%.
With `COc1ccc(Cl)cc1NC(=O)c1cc2nc(-c3ccc(C)cc3)cc(C(F)(F)F)n2n1`, the survival was inactive: 65%.
As to `Cc1cc(Br)ccc1NC(=O)C(NS(=O)(=O)c1cccs1)c1ccccc1` (stereo not given), the survival is inactive: 63%.
As to `N#Cc1ccc(S(=O)(=O)N2CCNCC2)cc1`, the survival is inactive: 114%.
Turning to `CCOC(=O)C(C)Nc1ncnc2onc(C)c12` (stereo not given), the survival is inactive: 72%.
Consider `COc1cc(NC(=O)CCCN2C(=O)CCn3nc(-c4cn(C)c5ccccc45)cc32)cc(OC)c1`, for which the survival was inactive: 134%.
Next, `CSc1nc(C)cc(Nc2cccc(C(=O)O)c2)n1`: inactive: 87%; `COc1cccc(C(=O)Nc2ccc3nc(SCC(=O)N4CCc5ccccc54)sc3c2)c1`: inactive: 85%; `Cc1sc2c(c1C)c(=O)n(-c1ccc(Cl)cc1)c(=O)n2CC(=O)c1ccccc1`: inactive: 76%.
Consider `Cc1c(NC(=O)c2ccc(-c3ccc(F)cc3)o2)cccc1-c1nc2ncccc2o1`, for which the survival is inactive: 82%.
The figure for `CCC(=O)Nc1ccc2nc(C3CC3)n(Cc3ccc(Cl)cc3)c(=O)c2c1` is inactive: 121%.
With `O=C(c1cnc(N2CCCCC2)c2ccccc12)N1CCN(c2ccc(F)cc2)CC1`, the survival was inactive: 85%.
For `Fc1ccc(Nc2nc(-c3ccc(F)cc3)c3c(n2)-c2ccccc2OC3)cc1`, the survival is inactive: 79%.
As to `CCOc1ccccc1CNC(=O)c1cc2oc3ccccc3c2n1CC`, the survival is active: 2%.
For `O=c1[nH]c2ccc(S(=O)(=O)Nc3cc(Cl)ccc3O)cc2o1`, the survival is inactive: 82%.
The figure for `COc1cccc(CNC(=O)c2ccc3c(c2)sc2nc(-c4ccccc4)cn23)c1OC` is inactive: 69%; for `Cc1ccc(-c2nc3scc(CCNS(=O)(=O)c4c(C)noc4C)n3n2)cc1` it is inactive: 128%.
`Cc1cc(C)cc(NC(=O)c2cc3c(=O)n(Cc4ccco4)ccc3nc2C)c1`: the survival is inactive: 45%.
For the molecule `CCC(=O)N1CCc2cc(Br)cc(S(=O)(=O)N3CCN(c4cccc(Cl)c4)CC3)c21`, the survival was inactive: 68%.
Consider `O=C(OCC1CCCO1)c1ccc2c(c1)N(Cc1cccc(F)c1)C(=O)c1ccccc1S2(=O)=O` (stereo not given), for which the survival was inactive: 67%.
For `Cc1nc2c(-c3ccc(F)cc3)c(C)nn2c(C)c1CCC(=O)NCc1cccc(Cl)c1`, the survival is inactive: 84%.
`CCOc1ccc(CNC23CN4CN(CN(C4)C2)C3)cc1`: the survival was inactive: 99%.
In the case of `CCN(CC)S(=O)(=O)c1ccc(N(C(=O)Cn2nnc3ccccc32)C(C(=O)NC2CCCC2)c2ccco2)cc1` (stereo not given), the survival is inactive: 112%.
On to `CC1CCc2nc(NC(=O)Cc3ccc(Cl)cc3)sc2C1` (stereo not given), for which the survival was inactive: 65%.
As for `CCOc1cccc(C2c3[nH]c4ccccc4c3CCN2C(=O)Cc2cccc(OCC)c2OCC)c1` (stereo not given), the survival was inactive: 88%.
As to `Cc1cc2c(cc1S(=O)(=O)CCC(=O)N(C)Cc1ccccc1)OCC(=O)N2`, the survival is inactive: 84%.
Next, `CSc1cccc(NC(=O)N2CCN(S(=O)(=O)c3ccc4c(ccn4C)c3)CC2)c1`: inactive: 49%.
With `O=S(=O)(c1ccc(Nc2ccc(-c3ccccc3)nn2)cc1)N1CCCC1`, the survival was inactive: 104%.
With `COc1ccc2c(CNCCc3ccccc3OC)c(C(=O)O)n(Cc3ccc(F)cc3Cl)c2c1`, the survival was inactive: 95%.
`Cc1cc(C)cc(NC(=O)CN(c2cccc(C)c2C)S(=O)(=O)c2ccccc2)c1`: the survival was inactive: 80%.
Consider `O=C(CSc1nc(-c2ccccc2)no1)N1CCN(c2ccc(F)cc2)CC1`, for which the survival is inactive: 91%.
Next, `COc1ccc(C2=NS(=O)(=O)N(C)C(C(=O)NC(C)c3ccccc3)=C2)cc1OC` (stereo not given): inactive: 88%; `CC1=C(C(=O)OC2CCCC2)C(c2ccc(Cl)cc2)CC(=O)N1` (stereo not given): inactive: 80%; `O=C(c1ccccc1)N1CCN(S(=O)(=O)N2CCOCC2)CC1`: inactive: 122%.
Regarding `COc1cccc(N2C(=O)CSC23C(=O)N(Cc2ccccc2F)c2ccccc23)c1` (stereo not given), the survival is inactive: 76%.
In the case of `COc1ccc(-c2nc(SCCOc3cc(C)ccc3C(C)C)n3[nH]c(=O)cc3n2)cc1`, the survival was inactive: 65%.
Next, `Cc1cccc(NC(=O)C2CCN(S(=O)(=O)c3c(C)noc3/C=C/c3ccco3)CC2)c1C`: inactive: 85%; `O=C(O)CSc1nc2ccc(Cl)cc2[nH]1`: inactive: 110%.
Next, `CCOc1cc(Cl)c(S(=O)(=O)n2cc(C)nc2CC)cc1Cl`: active: -7%.
For the molecule `O=C(NCC(c1ccco1)S(=O)(=O)c1cccs1)c1ccc(C(F)(F)F)cc1` (stereo not given), the survival is inactive: 83%.
For `COc1cccc(NC(=O)Nc2cc(-c3cn4cccnc4n3)ccc2OC)c1`, the survival was inactive: 76%.
In the case of `CCn1cc2nc(SCc3ccccc3)n(Cc3ccc(C)cc3)c(=O)c2n1`, the survival was inactive: 92%.
For `CN(C)c1ccc(CNS(=O)(=O)c2csc(C(N)=O)c2)cc1`, the survival is inactive: 90%.
Regarding `Cc1ccccc1NC(=O)CSc1nc2ccc(NC(=O)c3ccco3)cc2s1`, the survival is inactive: 56%.
`COC(=O)C1(CO)NC(c2ccc(Cl)cc2)C2C(=O)N(C)C(=O)C21` (stereo not given): the survival is inactive: 108%.
For `Clc1ccc(-c2noc3ncnc(N4CCCCC4)c23)cc1`, the survival was inactive: 81%.
For `COc1ccc(C)cc1NC(=O)c1cc(S(=O)(=O)NCCC2=CCCCC2)ccc1F`, the survival is inactive: 79%.
The figure for `COc1ccc(-c2noc(CSc3nnc(C)n3-c3ccc(C)cc3)n2)cc1` is inactive: 84%.
Regarding `CCCSc1nc2c(c(=O)[nH]1)C(c1ccc(O)c(OCC)c1)CC(=O)N2` (stereo not given), the survival was inactive: 108%.
Next, `Cn1c(=O)c2c(nc(NCc3ccccc3)n2Cc2ccc(Cl)c(Cl)c2)n(C)c1=O`: inactive: 80%; `O=C(NCCOc1ccccc1Cl)c1ncn[nH]1`: inactive: 121%.
Take `COc1ccc(C(=O)NCCc2nc3ccccc3[nH]2)cc1`: the survival is inactive: 137%.
With `COc1ccc(N2CC(C(=O)Nc3ccccc3-c3nc(-c4ccc(C)cc4)no3)CC2=O)cc1` (stereo not given), the survival was inactive: 88%.
Consider `CCOc1ccc(C(CC(=O)Nc2ccc(C(=O)OC)cc2)N2Cc3ccccc3C2=O)cc1OC` (stereo not given), for which the survival was inactive: 45%.
The figure for `CC(C)(C)c1ccc(OCc2cc(=O)n3c4c(sc3n2)CCCC4)cc1` is inactive: 84%.
Take `Cc1ccccc1CSCc1ccc(C(=O)NCCc2ccccc2)o1`: the survival is inactive: 77%.
Take `COc1cccc(NC(=O)c2oc3ccc(S(=O)(=O)N4CCC5(CC4)OCCO5)cc3c2C)c1`: the survival is inactive: 119%.
Next, `CCOc1ccccc1Nc1nc(N)nc(CN(C)C2CCCCC2)n1`: inactive: 112%; `CCc1ccc(-n2nc(C)c3c(C)cc(=O)n(CC(=O)N(CC)Cc4ccccc4)c32)cc1`: inactive: 97%.
With `CCc1ccc(C(=O)c2cn(Cc3ccccc3)c3cc(OC)c(OC)cc3c2=O)cc1`, the survival is inactive: 97%.
Next, `O=C(COc1ccc(F)cc1)OCc1cc(=O)n2nc(C3CC3)sc2n1`: inactive: 70%; `Cc1ccc(CCNC(=O)C2CCCN(S(=O)(=O)c3ccc4c(c3)oc(=O)n4C)C2)cc1` (stereo not given): inactive: 87%.
Next, `COc1ccccc1NC(=O)CSc1nc(-c2cccc(Cl)c2)nc2c1Cc1c(CO)cnc(C)c1O2`: inactive: 90%; `CCOc1ccc(CCNC(=O)CCSCc2cccc(Cl)c2)cc1OCC`: inactive: 71%; `Oc1c(C(c2ccc(Cl)cc2Cl)N2CCCC2)sc2nc(-c3ccco3)nn12` (stereo not given): inactive: 54%.
Next, `CCCCOC(=O)c1ccc(Nc2nc3ccc(C)cc3n3cnnc23)cc1`: inactive: 77%; `CCc1ccccc1NC(=O)COC(=O)c1cn(CC)c2nc(C)ccc2c1=O`: inactive: 83%.
Regarding `O=C(Nc1cc(Cl)ccc1O)c1cc2nc(-c3ccc4c(c3)OCO4)cc(C(F)(F)F)n2n1`, the survival is inactive: 93%.
Next, `CN(C)c1ccc(NC(=O)C2(c3cccs3)CCOCC2)cc1`: inactive: 127%; `COC(=O)C1C2C=CC3(CN(C4CCCC4)C(=O)C13)O2` (stereo not given): inactive: 109%.
Turning to `O=C(CSCc1ccc(F)cc1)N1CCc2c([nH]c3ccccc23)C1c1ccccc1` (stereo not given), the survival is inactive: 75%.
